According to the supplement of paper PMC4604168 (melanoma cell lines):
Some of the results follow. Most values come without repeats; read them as rough.

Tests used:
Assay in all cases: cell count relative to DMSO control; melanoma cells; higher = more viable cells
Settings in all cases: library dose: standard library concentration; 72 h
G361 = system: G361
IPC-298 = system: IPC-298
IST-MEL1 = system: IST-MEL1
LB2518-MEL = system: LB2518-MEL
LOXIMVI = system: LOXIMVI
MEL-HO = system: MEL-HO
MZ2-MEL = system: MZ2-MEL
MeWo = system: MeWo
RPMI7951 = system: RPMI7951
RVH-421 = system: RVH-421
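Further: cells treated in 1,536-well plates, then fixed and DAPI-stained, with nuclei counted from automated high-throughput microscope images.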

Compound | cell count (G361) [%] | cell count (IPC-298) [%] | cell count (IST-MEL1) [%] | cell count (LB2518-MEL) [%] | cell count (LOXIMVI) [%] | cell count (MEL-HO) [%] | cell count (MZ2-MEL) [%] | cell count (MeWo) [%] | cell count (RPMI7951) [%] | cell count (RVH-421) [%]
OCCn1cc(-c2cnc3nnn(Cc4ccc5ncccc5c4)c3n2)cn1 + Cn1cncc1[C@@](N)(c1ccc(Cl)cc1)c1ccc2c(c1)c(-c1cccc(Cl)c1)cc(=O)n2C [tipifarnib] (first compound 5 µM, partner dose 0.05 µM) | 81.2 | 87.9 | 84.4 | 70.6 | 81.7 | 88.6 | 112 | 71 | 64.6 | 82.9
C[C@]1(c2nc3c(C(N)=O)cccc3[nH]2)CCCN1 [Veliparib] + Oc1nc(-c2ccc(C(F)(F)F)cc2)nc2c1CSCC2 [XAV939] (first compound 7 µM, partner dose 10 µM) | 85.3 | 101 | 100 | 79 | 89.8 | 84.7 | 62 | 90.6 | 73.8 | 78.5
NCC(=O)Nc1ccc(-n2nc(C(F)(F)F)cc2-c2ccc3c(ccc4ccccc43)c2)cc1 + O=C(O)C(=O)Nc1sc2c(c1C(=O)O)CCNC2 [TCS401] (first compound 5 µM, partner dose 8.33333 µM) | 79 | 59 | 84.2 | 88.7 | 95 | 84 | 70 | 90 | 92.8 | 70.9
OCCn1cc(-c2cnc3nnn(Cc4ccc5ncccc5c4)c3n2)cn1 + Oc1cc(-c2nc(-c3ccccc3)[nH]c2-c2ccncc2)ccc1Cl [L779450] (first compound 5 µM, partner dose 1 µM) | 65.3 | 105 | 85.1 | 102 | 102 | 91.3 | 129 | 86.8 | 53.5 | 80.8
NC(=O)Nc1cc(-c2cccc(F)c2)sc1C(=O)N[C@H]1CCCNC1 + NCC(=O)Nc1ccc(-n2nc(C(F)(F)F)cc2-c2ccc3c(ccc4ccccc43)c2)cc1 [OSU03012] (first compound 0.1 µM, partner dose 5 µM) | 74.7 | 50.5 | 70.4 | 48.1 | 75.9 | 58.4 | 94 | 71 | 54.5 | 96.3
C[C@]1(c2nc3c(C(N)=O)cccc3[nH]2)CCCN1 [Veliparib] + COc1cc2ncnc(Nc3ccc(Oc4ccccc4)cc3)c2cc1OC [SrcI1] (first compound 7 µM, partner dose 10 µM) | 53.9 | 95.8 | 74.1 | 97.4 | 192 | 94.9 | 82.6 | 89.4 | 26.5 | 99
NC(=O)Nc1cc(-c2cccc(F)c2)sc1C(=O)N[C@H]1CCCNC1 + COc1cc2ncnc(Nc3ccc(Oc4ccccc4)cc3)c2cc1OC [SrcI1] (first compound 0.1 µM, partner dose 10 µM) | 62.9 | 60.9 | 72.6 | 66.4 | 54.2 | 69.7 | 58.7 | 55.7 | 24.4 | 115
Cc1nc(Nc2ncc(C(=O)Nc3c(C)cccc3Cl)s2)cc(N2CCN(CCO)CC2)n1 [dasatanib] + c1cc(-c2cnn3cc(-c4ccc(OCCN5CCCCC5)cc4)cnc23)ccn1 [Dorsomorphin] (first compound 0.02 µM, partner dose 2 µM) | 42.6 | 76.6 | 64.3 | 68.2 | 37.1 | 68.3 | 7.53 | 66.8 | 34.6 | 90.6
CN(C)S(=O)(=O)c1ccc2c(c1)/C(=C/c1cc3c([nH]1)CCCC3)C(=O)N2 + NCC(=O)Nc1ccc(-n2nc(C(F)(F)F)cc2-c2ccc3c(ccc4ccccc43)c2)cc1 [OSU03012] (first compound 2 µM, partner dose 5 µM) | 62.5 | 45.5 | 58 | 66.7 | 62.4 | 55.2 | 86.1 | 79.2 | 38.5 | 71.9
CN(C)S(=O)(=O)c1ccc2c(c1)/C(=C/c1cc3c([nH]1)CCCC3)C(=O)N2 + COC(=O)c1sccc1S(=O)(=O)Nc1ccc(Nc2ccccc2)cc1OC [GSK0660] (first compound 2 µM, partner dose 5 µM) | 71.1 | 64.8 | 78.5 | 74.8 | 108 | 82.6 | 75.6 | 96.8 | 37.3 | 76
CO[C@@H]1[C@H](N(C)C(=O)c2ccccc2)C[C@H]2O[C@]1(C)n1c3ccccc3c3c4c(c5c6ccccc6n2c5c31)C(=O)NC4 [Midostaurin] + O=C(Nc1cccc(Cl)c1)Nc1ncc(CCNc2ncnc3ccsc23)s1 [SNS314] (first compound 0.4 µM, partner dose 0.004 µM) | 22.4 | 37.4 | 34.8 | 42 | 50.5 | 53.4 | 42.6 | 37.6 | 41.1 | 62.7
